Assay results: a collection of fitness landscapes (doi:10.1126/science.1257360)
This is one part of the list.

B1: PhoQ; a variant is named by its letters at X, in order, P23837 (parent)
chain: MKKLLRLFFPLSLRVRFLLATAAVVLVLSLAYGMVALIGYSVSFDKTTFRLLRGESNLFYTLAKWENNKLHVELPENIDKQSPTMTLIYDENGQLLWAQRDVPWLMKMIQPDWLKSNGFHEIEADVNDTSLLLSGDHSIQQQLQEVREDDDDAEMTHSVAVNVYPATSRMPKLTIVVVDTIPVELKSSYMVWSWFIYVLSANLLLVIPLLWVAAWWSLRPIEALAKEVRELEEHNRELLNPATTRELTSLVRNLNRLLKSERERYDKYRTTLTDLTHSLKTPLXXLQXXLRSLRSEKMSVSDAEPVMLEQISRISQQIGYYLHRASMRGGTLLSRELHPVAPLLDNLTSALNKVYQRKGVNISLDISPEISFVGEQNDFVEVMGNVLDNACKYCLEFVEISARQTDEHLYIVVEDDGPGIPLSKREVIFDRGQRVDTLRPGQGVGLAVAREITEQYEGKIVAGESMLGGARMEVIFGRQHSAPKDE

Variants of: B1
Test: enrichment ratio after two sorts for PhoP signalling (ratio (wild type AVST 3.29)); higher = more functional
Conditions: with PhoP (E. coli)

| Variant | enrichment ratio |
| --- | --- |
| WQFG | ≤ 0.25 |
| EQHQ | ≤ 0.25 |
| RTLA | ≤ 0.25 |
| MSNQ | ≤ 0.25 |
| PGHN | ≤ 0.25 |
| MDVT | ≤ 0.25 |
| NYVS | ≤ 0.25 |
| IENC | ≤ 0.25 |
| KYMY | ≤ 0.25 |
| GWMS | ≤ 0.25 |
| YPCP | ≤ 0.25 |
| MYPA | ≤ 0.25 |
| MGQM | ≤ 0.25 |
| QQKC | ≤ 0.25 |
| YVSR | ≤ 0.25 |
| WVIR | ≤ 0.25 |
| EVRH | ≤ 0.25 |
| VIKY | ≤ 0.25 |
| HPSG | ≤ 0.25 |
| NARP | ≤ 0.25 |
| YMNM | ≤ 0.25 |
| LDWM | ≤ 0.25 |
| EYSF | ≤ 0.25 |
| ATTK | 10.4 |

| Variant | enrichment ratio |
| --- | --- |
| PSVN | ≤ 0.25 |
| GPLM | ≤ 0.25 |
| EDSR | ≤ 0.25 |
| GIVL | 9.54 |
| RQFV | ≤ 0.25 |
| TCIK | ≤ 0.25 |
| NLSW | ≤ 0.25 |
| RLNE | ≤ 0.25 |
| VIVE | ≤ 0.25 |
| MCTG | ≤ 0.25 |
| HGVI | 1.24 |
| GSPQ | ≤ 0.25 |
| HQTC | ≤ 0.25 |
| YMMD | ≤ 0.25 |
| MLAA | ≤ 0.25 |
| FICN | ≤ 0.25 |
| TNMS | 4.8 |
| ASIY | 3.82 |
| PGNR | ≤ 0.25 |
| ACYL | 0.538 |
| MKRM | ≤ 0.25 |
| YVCF | 0.805 |
| YTQP | ≤ 0.25 |
| FPGS | ≤ 0.25 |

| Variant | enrichment ratio |
| --- | --- |
| MIDF | ≤ 0.25 |
| ECRA | ≤ 0.25 |
| CHFG | ≤ 0.25 |
| IMLH | ≤ 0.25 |
| PYGL | ≤ 0.25 |
| QYCF | ≤ 0.25 |
| VAMN | ≤ 0.25 |
| AVSE | ≤ 0.25 |
| SGER | ≤ 0.25 |
| INTW | ≤ 0.25 |
| RPLI | ≤ 0.25 |
| FQLW | ≤ 0.25 |
| YRCQ | ≤ 0.25 |
| PDEY | ≤ 0.25 |
| NVLE | ≤ 0.25 |
| MYPE | ≤ 0.25 |
| SLQL | 5.85 |
| SQTL | 12.3 |
| RTYN | ≤ 0.25 |
| VSSW | ≤ 0.25 |
| RKSA | ≤ 0.25 |
| NCWW | ≤ 0.25 |
| IPYC | ≤ 0.25 |
| ISNY | ≤ 0.25 |

| Variant | enrichment ratio |
| --- | --- |
| LPYK | ≤ 0.25 |
| KANF | ≤ 0.25 |
| YTLH | 0.617 |
| QSGC | 2.55 |
| ANHG | ≤ 0.25 |
| IVER | ≤ 0.25 |
| GPSP | ≤ 0.25 |
| DMSD | ≤ 0.25 |
| FCEN | ≤ 0.25 |
| YTTP | ≤ 0.25 |
| KRHK | ≤ 0.25 |
| VRFD | ≤ 0.25 |
| FLIN | ≤ 0.25 |
| FCYA | ≤ 0.25 |
| KEKF | ≤ 0.25 |
| LSTA | ≤ 0.25 |
| PRRM | ≤ 0.25 |
| LTLK | ≤ 0.25 |
| WVWI | ≤ 0.25 |
| YVAR | ≤ 0.25 |
| YWNW | ≤ 0.25 |
| GKHQ | ≤ 0.25 |
| RWQG | ≤ 0.25 |
| NCKM | ≤ 0.25 |

| Variant | enrichment ratio |
| --- | --- |
| LFWD | ≤ 0.25 |
| YMMM | ≤ 0.25 |
| FSLQ | 11.8 |
| FFIR | ≤ 0.25 |
| NMNQ | ≤ 0.25 |
| MKAR | ≤ 0.25 |
| STHF | ≤ 0.25 |
| PVKL | ≤ 0.25 |
| TSPA | ≤ 0.25 |
| TYED | ≤ 0.25 |
| EGNP | ≤ 0.25 |
| AHLK | ≤ 0.25 |
| YKQC | ≤ 0.25 |
| ILLE | ≤ 0.25 |
| KAHQ | ≤ 0.25 |
| PRYK | ≤ 0.25 |
| NTRY | ≤ 0.25 |
| ADWA | ≤ 0.25 |
| SEQK | ≤ 0.25 |
| GQIN | ≤ 0.25 |
| SEPG | ≤ 0.25 |
| LYGC | ≤ 0.25 |
| IARN | ≤ 0.25 |
| CCIL | ≤ 0.25 |

| Variant | enrichment ratio |
| --- | --- |
| DTET | ≤ 0.25 |
| VPQY | ≤ 0.25 |
| GNID | ≤ 0.25 |
| VWHH | ≤ 0.25 |
| YDST | ≤ 0.25 |
| TQML | 22.5 |
| FGHD | ≤ 0.25 |
| FKQD | ≤ 0.25 |
| MDDG | ≤ 0.25 |
| LRSP | ≤ 0.25 |
| LLHS | ≤ 0.25 |
| GPPT | ≤ 0.25 |
| IEFT | ≤ 0.25 |
| QWFT | ≤ 0.25 |
| YPEF | ≤ 0.25 |
| YCYP | ≤ 0.25 |
| SPNQ | ≤ 0.25 |
| SMNR | ≤ 0.25 |
| DRQP | ≤ 0.25 |
| ECQL | ≤ 0.25 |
| MFPE | ≤ 0.25 |
| FRHW | ≤ 0.25 |
| NIPN | ≤ 0.25 |
| YFSL | ≤ 0.25 |

| Variant | enrichment ratio |
| --- | --- |
| YYHP | ≤ 0.25 |
| MHEF | ≤ 0.25 |
| LVTD | ≤ 0.25 |
| YSVS | ≤ 0.25 |
| KRHG | ≤ 0.25 |
| PWFR | ≤ 0.25 |
| NREL | ≤ 0.25 |
| WDCL | ≤ 0.25 |
| FMLQ | ≤ 0.25 |
| GTQF | ≤ 0.25 |
| VETV | 1.5 |
| EEGY | ≤ 0.25 |
| KERV | ≤ 0.25 |
| HWKL | ≤ 0.25 |
| MCDK | ≤ 0.25 |
| LWCY | ≤ 0.25 |
| GTNR | ≤ 0.25 |
| IEFK | ≤ 0.25 |
| DIKL | ≤ 0.25 |
| LWDG | ≤ 0.25 |
| QSAS | ≤ 0.25 |
| SHPC | 1.02 |
| SIEY | 1.32 |
| SGMF | 13.3 |

| Variant | enrichment ratio |
| --- | --- |
| HESF | ≤ 0.25 |
| QKIQ | ≤ 0.25 |
| SMIR | ≤ 0.25 |
| GIRR | ≤ 0.25 |
| FWCC | ≤ 0.25 |
| EKFI | ≤ 0.25 |
| WLAV | ≤ 0.25 |
| TQFW | ≤ 0.25 |
| KALT | ≤ 0.25 |
| DNHV | ≤ 0.25 |
| MNPS | ≤ 0.25 |
| ELES | ≤ 0.25 |
| WVFC | ≤ 0.25 |
| LGKV | ≤ 0.25 |
| SPCN | ≤ 0.25 |
| YVWM | ≤ 0.25 |
| HCPV | ≤ 0.25 |
| HCPQ | ≤ 0.25 |
| PKWL | ≤ 0.25 |
| IHEM | ≤ 0.25 |
| SPLS | ≤ 0.25 |
| FHGT | ≤ 0.25 |
| DQDI | ≤ 0.25 |
| GFQD | ≤ 0.25 |

| Variant | enrichment ratio |
| --- | --- |
| RWVI | ≤ 0.25 |
| IKMD | ≤ 0.25 |
| NNHS | ≤ 0.25 |
| YNQD | ≤ 0.25 |
| NCKV | ≤ 0.25 |
| KCGQ | ≤ 0.25 |
| TTNC | 4.75 |
| GYYP | ≤ 0.25 |
| TWMD | ≤ 0.25 |
| VLWR | ≤ 0.25 |
| KMGL | ≤ 0.25 |
| NCCP | ≤ 0.25 |
| MSQN | ≤ 0.25 |
| TPQC | ≤ 0.25 |
| GMNQ | ≤ 0.25 |
| FPHH | ≤ 0.25 |
| EPNF | ≤ 0.25 |
| RPLG | ≤ 0.25 |
| ASIP | ≤ 0.25 |
| ERTK | ≤ 0.25 |
| GVKG | ≤ 0.25 |
| MHKL | ≤ 0.25 |
| RGSI | ≤ 0.25 |
| SPIS | ≤ 0.25 |

| Variant | enrichment ratio |
| --- | --- |
| IKCI | ≤ 0.25 |
| FRAW | ≤ 0.25 |
| RRSL | ≤ 0.25 |
| AMGA | ≤ 0.25 |
| IAEN | ≤ 0.25 |
| LAWY | ≤ 0.25 |
| IWPC | ≤ 0.25 |
| IDSY | ≤ 0.25 |
| ECCG | ≤ 0.25 |
| PARR | ≤ 0.25 |
| TKYF | ≤ 0.25 |
| SAAT | 3.66 |
| DLNV | ≤ 0.25 |
| HKTF | ≤ 0.25 |
| LAKN | ≤ 0.25 |
| RTKS | ≤ 0.25 |
| KSCR | ≤ 0.25 |
| IFGW | ≤ 0.25 |
| MCIM | ≤ 0.25 |
| TYFY | ≤ 0.25 |
| TQSA | 19.8 |
| DFVH | ≤ 0.25 |
| NHSH | ≤ 0.25 |
| GFMK | ≤ 0.25 |

| Variant | enrichment ratio |
| --- | --- |
| ERNL | ≤ 0.25 |
| RNMP | ≤ 0.25 |
| NEHR | ≤ 0.25 |
| RVGN | ≤ 0.25 |
| LPHI | ≤ 0.25 |
| IGCL | ≤ 0.25 |
| RTLS | ≤ 0.25 |
| PPHN | ≤ 0.25 |
| KSDD | ≤ 0.25 |
| HNWN | ≤ 0.25 |
| VGIA | ≤ 0.25 |
| HNMS | ≤ 0.25 |
| EPNP | ≤ 0.25 |
| TWSP | ≤ 0.25 |
| RTGY | ≤ 0.25 |
| MDSV | ≤ 0.25 |
| NCAR | ≤ 0.25 |
| GWTI | ≤ 0.25 |
| FCIK | ≤ 0.25 |
| GYPR | 0.756 |
| GRMP | ≤ 0.25 |
| KFPF | ≤ 0.25 |
| QKTC | ≤ 0.25 |
| MCTF | 1.54 |

| Variant | enrichment ratio |
| --- | --- |
| RMFE | ≤ 0.25 |
| FTMR | ≤ 0.25 |
| NHSN | ≤ 0.25 |
| VDRR | ≤ 0.25 |
| YLTS | 0.315 |
| APRF | ≤ 0.25 |
| GEHF | ≤ 0.25 |
| EDPI | ≤ 0.25 |
| FFFM | ≤ 0.25 |
| NFMF | ≤ 0.25 |
| WPKS | ≤ 0.25 |
| NISV | 3.96 |
| DYVQ | ≤ 0.25 |
| TVWP | ≤ 0.25 |
| MKQS | ≤ 0.25 |
| LTKP | ≤ 0.25 |
| DSLS | ≤ 0.25 |
| SCSG | 20.2 |
| DCQT | ≤ 0.25 |
| GPSF | ≤ 0.25 |
| QILM | ≤ 0.25 |
| IRSY | ≤ 0.25 |
| VYVF | ≤ 0.25 |
| CLMC | ≤ 0.25 |

| Variant | enrichment ratio |
| --- | --- |
| KDVK | ≤ 0.25 |
| ECNH | ≤ 0.25 |
| EYYL | ≤ 0.25 |
| HDEI | ≤ 0.25 |
| ISDT | ≤ 0.25 |
| LQTM | ≤ 0.25 |
| NRIT | ≤ 0.25 |
| RWQD | ≤ 0.25 |
| FRFH | ≤ 0.25 |
| GCER | ≤ 0.25 |
| NKDT | ≤ 0.25 |
| IIFV | ≤ 0.25 |
| DRIW | ≤ 0.25 |
| RTQP | ≤ 0.25 |
| HTQL | ≤ 0.25 |
| PLCQ | ≤ 0.25 |
| DERI | ≤ 0.25 |
| SRLN | ≤ 0.25 |
